# The other results are listed elsewhere or left out. Each Rep nickase domain was tested in vitro on the same pool of single strands (3 µM enzyme, 1 h, 37 °C); shown is the middle of each 90-letter strand. Numbers give uncut DNA relative to the enzyme-free pool, as log2; the lower, the more was cut; hits are not called. The scaling is to total reads; uncut strands gain when others are lost, and binding without cutting may add a little.
# Columns and labels:
# Assay in all cases: uncleaved DNA left, log2 of reads against the no-enzyme library (log2 ratio); higher = less cleavage (more negative = more Rep cleavage of the k-mer); sequences stand for … in CTCGTCCG…ACCGGAGA
# [1] = test system: T1, Rep nickase domain of Muscovy duck circovirus
# T1 sequence (Rep 1-111, printed without the tag): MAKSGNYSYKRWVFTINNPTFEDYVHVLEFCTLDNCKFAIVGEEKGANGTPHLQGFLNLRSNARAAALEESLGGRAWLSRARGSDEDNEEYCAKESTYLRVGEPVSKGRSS
# Method: (§1)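 A pool of 90-nt single-stranded DNAs with seven random bases just before the constant AC of the nick site (name = the seven bases) was cut by 3 µM recombinant His6-SUMO-tagged Rep nickase domain (300 nM DNA, 50 mM HEPES pH 8.0, 50 mM NaCl, 1 mM MnCl2, 1 h, 37 °C, three replicates). Uncut DNA was amplified and sequenced.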
# [2] = test system: T2, Rep nickase domain of banana bunchy top virus
# T2 sequence (Rep 1-94, printed without the tag): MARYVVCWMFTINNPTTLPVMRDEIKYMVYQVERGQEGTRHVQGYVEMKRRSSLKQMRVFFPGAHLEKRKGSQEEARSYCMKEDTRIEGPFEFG
# Method: as §1
# [3] = test system: T3, Rep nickase domain of cabbage leaf curl virus
# T3 sequence (Rep 1-116, printed without the tag): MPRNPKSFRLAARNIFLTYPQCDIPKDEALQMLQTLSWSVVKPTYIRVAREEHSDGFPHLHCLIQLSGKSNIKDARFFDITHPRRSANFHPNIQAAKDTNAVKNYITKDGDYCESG
# Method: as §1
# [4] = test system: T4, Rep nickase domain of chickpea chlorotic dwarf virus
# T4 sequence (Rep 1-124, printed without the tag): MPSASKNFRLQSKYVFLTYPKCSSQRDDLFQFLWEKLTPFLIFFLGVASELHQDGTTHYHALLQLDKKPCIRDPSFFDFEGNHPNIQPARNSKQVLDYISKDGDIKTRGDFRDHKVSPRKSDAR
# Method: as §1
# [5] = test system: T5, Rep nickase domain of faba bean necrotic yellows virus
# T5 sequence (Rep 1-98, printed without the tag): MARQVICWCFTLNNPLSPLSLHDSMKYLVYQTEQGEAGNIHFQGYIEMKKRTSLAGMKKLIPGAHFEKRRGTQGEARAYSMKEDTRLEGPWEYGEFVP
# Method: as §1
# [6] = test system: T6, Rep nickase domain of maize striate mosaic virus
# T6 sequence (Rep 1-117, printed without the tag): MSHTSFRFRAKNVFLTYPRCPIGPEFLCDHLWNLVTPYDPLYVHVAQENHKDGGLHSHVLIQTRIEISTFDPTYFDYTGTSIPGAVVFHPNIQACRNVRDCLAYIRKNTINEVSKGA
# Method: as §1
# [7] = test system: T7, Rep nickase domain of porcine circovirus 2
# T7 sequence (Rep 2-116, printed without the tag): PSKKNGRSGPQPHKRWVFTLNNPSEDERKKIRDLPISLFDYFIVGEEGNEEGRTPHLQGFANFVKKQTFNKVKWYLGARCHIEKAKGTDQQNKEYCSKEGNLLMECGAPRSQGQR
# Method: as §1
# [8] = test system: T8, Rep nickase domain of tomato golden mosaic virus
# T8 sequence (Rep 1-124, printed without the tag): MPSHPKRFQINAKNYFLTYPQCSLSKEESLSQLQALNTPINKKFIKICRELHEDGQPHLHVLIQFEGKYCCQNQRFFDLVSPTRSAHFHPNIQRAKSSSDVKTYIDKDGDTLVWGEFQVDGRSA
# Method: as §1
# [9] = test system: T9, Rep nickase domain of tomato yellow leaf curl virus
# T9 sequence (Rep 1-136, printed without the tag): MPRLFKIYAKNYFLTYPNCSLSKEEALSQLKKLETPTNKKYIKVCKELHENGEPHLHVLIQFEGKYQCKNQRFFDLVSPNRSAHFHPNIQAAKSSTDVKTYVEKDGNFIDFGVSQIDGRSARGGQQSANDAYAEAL
# Method: as §1
# [10] = test system: T10, Rep nickase domain of wheat dwarf virus
# T10 sequence (Rep 1-137, printed without the tag): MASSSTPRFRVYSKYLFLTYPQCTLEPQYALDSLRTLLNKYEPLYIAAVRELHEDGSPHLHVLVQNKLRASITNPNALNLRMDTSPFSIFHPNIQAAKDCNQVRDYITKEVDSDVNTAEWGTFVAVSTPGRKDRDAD
# Method: as §1
sequence,measurement,setting,value
CCCTACA,uncleaved DNA left (log2),[1],-0.0279
same,uncleaved DNA left (log2),[2],0.0785
same,uncleaved DNA left (log2),[3],-0.197
same,uncleaved DNA left (log2),[4],-2.31
same,uncleaved DNA left (log2),[5],0.163
same,uncleaved DNA left (log2),[6],-0.477
same,uncleaved DNA left (log2),[7],-0.0185
same,uncleaved DNA left (log2),[8],0.0528
same,uncleaved DNA left (log2),[9],0.153
same,uncleaved DNA left (log2),[10],0.00166
ACATTTG,uncleaved DNA left (log2),[1],-0.0678
same,uncleaved DNA left (log2),[2],-0.104
same,uncleaved DNA left (log2),[3],-0.745
same,uncleaved DNA left (log2),[4],-0.577
same,uncleaved DNA left (log2),[5],-0.0216
same,uncleaved DNA left (log2),[6],-1.13
same,uncleaved DNA left (log2),[7],0.168
same,uncleaved DNA left (log2),[8],-0.117
same,uncleaved DNA left (log2),[9],0.00409
same,uncleaved DNA left (log2),[10],-0.0804
CGTACGT,uncleaved DNA left (log2),[1],0.0282
same,uncleaved DNA left (log2),[2],-0.128
same,uncleaved DNA left (log2),[3],0.137
same,uncleaved DNA left (log2),[4],0.239
same,uncleaved DNA left (log2),[5],-0.0184
same,uncleaved DNA left (log2),[6],0.212
same,uncleaved DNA left (log2),[7],-0.0156
same,uncleaved DNA left (log2),[8],-0.0781
same,uncleaved DNA left (log2),[9],0.0792
same,uncleaved DNA left (log2),[10],0.032
AAGTCGA,uncleaved DNA left (log2),[1],0.0241
same,uncleaved DNA left (log2),[2],-0.0469
same,uncleaved DNA left (log2),[3],-0.508
same,uncleaved DNA left (log2),[4],-0.888
same,uncleaved DNA left (log2),[5],0.0306
same,uncleaved DNA left (log2),[6],-1.05
same,uncleaved DNA left (log2),[7],-1.27
same,uncleaved DNA left (log2),[8],0.00437
same,uncleaved DNA left (log2),[9],-0.106
same,uncleaved DNA left (log2),[10],-0.0119
AAGTTAG,uncleaved DNA left (log2),[1],0.0688
same,uncleaved DNA left (log2),[2],0.0654
same,uncleaved DNA left (log2),[3],-0.707
same,uncleaved DNA left (log2),[4],-0.604
same,uncleaved DNA left (log2),[5],0.112
same,uncleaved DNA left (log2),[6],-1.22
same,uncleaved DNA left (log2),[7],-0.0384
same,uncleaved DNA left (log2),[8],-0.0501
same,uncleaved DNA left (log2),[9],0.0934
same,uncleaved DNA left (log2),[10],-0.119
AGCAGGA,uncleaved DNA left (log2),[1],0.0129
same,uncleaved DNA left (log2),[2],0.0623
same,uncleaved DNA left (log2),[3],0.237
same,uncleaved DNA left (log2),[4],0.582
same,uncleaved DNA left (log2),[5],-0.00731
same,uncleaved DNA left (log2),[6],0.475
same,uncleaved DNA left (log2),[7],0.0807
same,uncleaved DNA left (log2),[8],0.0918
same,uncleaved DNA left (log2),[9],-0.00575
same,uncleaved DNA left (log2),[10],0.0436
CTTGTCG,uncleaved DNA left (log2),[1],0.0815
same,uncleaved DNA left (log2),[2],0.0174
same,uncleaved DNA left (log2),[3],-0.902
same,uncleaved DNA left (log2),[4],-0.473
same,uncleaved DNA left (log2),[5],-0.13
same,uncleaved DNA left (log2),[6],-1.06
same,uncleaved DNA left (log2),[7],0.168
same,uncleaved DNA left (log2),[8],-0.121
same,uncleaved DNA left (log2),[9],-0.0105
same,uncleaved DNA left (log2),[10],-0.0254
AACTGGG,uncleaved DNA left (log2),[1],0.0806
same,uncleaved DNA left (log2),[2],-0.00418
same,uncleaved DNA left (log2),[3],-0.496
same,uncleaved DNA left (log2),[4],-0.574
same,uncleaved DNA left (log2),[5],0.00357
same,uncleaved DNA left (log2),[6],-0.979
same,uncleaved DNA left (log2),[7],0.185
same,uncleaved DNA left (log2),[8],0.00452
same,uncleaved DNA left (log2),[9],0.0485
same,uncleaved DNA left (log2),[10],-0.031
AGACGAA,uncleaved DNA left (log2),[1],-0.0934
same,uncleaved DNA left (log2),[2],-0.0984
same,uncleaved DNA left (log2),[3],0.337
same,uncleaved DNA left (log2),[4],0.772
same,uncleaved DNA left (log2),[5],-0.0703
same,uncleaved DNA left (log2),[6],0.674
same,uncleaved DNA left (log2),[7],-0.0314
same,uncleaved DNA left (log2),[8],-0.045
same,uncleaved DNA left (log2),[9],-0.0726
same,uncleaved DNA left (log2),[10],0.0204
AAGGCTC,uncleaved DNA left (log2),[1],-0.0811
same,uncleaved DNA left (log2),[2],-0.0386
same,uncleaved DNA left (log2),[3],0.11
same,uncleaved DNA left (log2),[4],0.298
same,uncleaved DNA left (log2),[5],-0.0713
same,uncleaved DNA left (log2),[6],0.344
same,uncleaved DNA left (log2),[7],0.0628
same,uncleaved DNA left (log2),[8],0.108
same,uncleaved DNA left (log2),[9],-0.0956
same,uncleaved DNA left (log2),[10],-0.0196
GTCACTA,uncleaved DNA left (log2),[1],-0.00325
same,uncleaved DNA left (log2),[2],0.0496
same,uncleaved DNA left (log2),[3],0.239
same,uncleaved DNA left (log2),[4],0.859
same,uncleaved DNA left (log2),[5],-0.0183
same,uncleaved DNA left (log2),[6],1.65
same,uncleaved DNA left (log2),[7],0.0299
same,uncleaved DNA left (log2),[8],0.175
same,uncleaved DNA left (log2),[9],0.135
same,uncleaved DNA left (log2),[10],0.0508
CTCTGTG,uncleaved DNA left (log2),[1],0.0278
same,uncleaved DNA left (log2),[2],-0.196
same,uncleaved DNA left (log2),[3],-0.997
same,uncleaved DNA left (log2),[4],-0.247
same,uncleaved DNA left (log2),[5],0.0377
same,uncleaved DNA left (log2),[6],-0.973
same,uncleaved DNA left (log2),[7],0.0841
same,uncleaved DNA left (log2),[8],-0.0521
same,uncleaved DNA left (log2),[9],0.00944
same,uncleaved DNA left (log2),[10],-0.259
CGGACGC,uncleaved DNA left (log2),[1],0.0645
same,uncleaved DNA left (log2),[2],0.00533
same,uncleaved DNA left (log2),[3],0.683
same,uncleaved DNA left (log2),[4],1.67
same,uncleaved DNA left (log2),[5],-0.0316
same,uncleaved DNA left (log2),[6],1.79
same,uncleaved DNA left (log2),[7],0.174
same,uncleaved DNA left (log2),[8],0.0225
same,uncleaved DNA left (log2),[9],0.0853
same,uncleaved DNA left (log2),[10],0.119
AAGGTTC,uncleaved DNA left (log2),[1],-0.0516
same,uncleaved DNA left (log2),[2],-0.239
same,uncleaved DNA left (log2),[3],0.0544
same,uncleaved DNA left (log2),[4],0.601
same,uncleaved DNA left (log2),[5],-0.203
same,uncleaved DNA left (log2),[6],0.633
same,uncleaved DNA left (log2),[7],-0.00813
same,uncleaved DNA left (log2),[8],-0.0671
same,uncleaved DNA left (log2),[9],-0.151
same,uncleaved DNA left (log2),[10],-0.213
TTCCGTT,uncleaved DNA left (log2),[1],-0.149
same,uncleaved DNA left (log2),[2],-0.201
same,uncleaved DNA left (log2),[3],-0.025
same,uncleaved DNA left (log2),[4],-1.03
same,uncleaved DNA left (log2),[5],-0.272
same,uncleaved DNA left (log2),[6],-0.269
same,uncleaved DNA left (log2),[7],-0.342
same,uncleaved DNA left (log2),[8],-0.311
same,uncleaved DNA left (log2),[9],-0.0514
same,uncleaved DNA left (log2),[10],-0.0513

# From the supplement of paper PMC7826260
